Among all 360,000 compounds or so, about 17,000 (4.7%) were called active. Inconclusive means that the source gave no clear call. Such entries were picked first, then a sample of the others. No stated cut-off is given here; in the data, active means activity change below about -50%; inconclusive means mostly about -30% to -49%; inactive means weaker than that.
Test: qHTS for Inhibitors of Inflammasome Signaling: IL-1-beta AlphaLISA Primary Screen
Details: THP-1 LPS/ATP IL-1B secretion, 16 h; at 57.5 µM, active compounds read low
Summary of the method: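 Secreted IL-1B measured by AlphaLISA bead assay after 16 h compound exposure of THP-1 cells; compounds (final up to 57.5 uM) added 1 h before LPS (250 ng/mL) and ATP (1.25 mM) stimulation; lower signal means less secretion.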
On the % scale 0 is the no-effect control and ±100 the full control effect.

Activity change, inconclusive:
COc1cccc(NC(=O)c2nnn(CCc3ccccc3)c2N)c1 -32.2%
O=C(C1=C[C@H](c2ccc3c(c2)OCO3)C[C@H](OCCCCO)O1)N1CCN(Cc2ccc3c(c2)OCO3)CC1 -38.5%
CC(=O)Nc1ccc(-c2csc(NC(=O)c3ccc(C)o3)n2)cc1 -47.2%
COc1ccc(-c2cc(-c3nnc(COC(=O)c4ccc(O)cc4)o3)c3ccccc3n2)cc1OC -47.4%
CC(=O)OC(C(=O)NC1CCCCC1)c1ccccc1 (stereo unspecified) -30.8%
O=C(c1ccc(Cn2cc(Cl)c([N+](=O)[O-])n2)cc1)N1CCN(Cc2ccccc2)CC1 -39.3%
CC(C)(C)n1nnnc1C(c1cc2cc3c(cc2[nH]c1=O)OCO3)N1CCN(c2ccccc2)CC1 (stereo unspecified) -49.9%
CCN(CC)C(=O)c1sc(NC(=O)c2ccoc2C)c(C(=O)OC)c1C -32.1%
Cc1ccc(-c2cc(C(F)F)n3ncc(C(=O)Nc4c(C)nn(Cc5ccccc5Cl)c4C)c3n2)cc1 -32.1%
CCOc1ccc(CN2CCCC(CO)(Cc3ccc(F)cc3)C2)cc1 (stereo unspecified) -35.1%
CCNC(=O)/C=C1\NC(C)(C)Cc2c1ccc1ccccc21 -30.2%
O=c1[nH]c(C2CCN(S(=O)(=O)c3ccc(S(=O)(=O)NC4CC4)cc3)CC2)nc2c1nnn2Cc1ccc(F)cc1 -38.6%
Cc1ccc(CN(C)C(=O)CCc2c[nH]c3ccccc23)o1 -45.9%
COc1ccc(C(=S)N2CCCCCC2)cc1 -30.5%
COc1ccc(NC(=S)Nc2cc(C(F)(F)F)ccc2F)cc1 -36.8%
O=C(NCC1CCCO1)c1cc2c([nH]c3ccccc32)c(-c2cccc(Br)c2)n1 (stereo unspecified) -46.5%
COc1ccc(N(Cc2ccc(N(C)C)cc2)C(=O)c2ccc(S(C)(=O)=O)cc2)cc1 -41%
O=C(CN1CCN(C(=O)CNC(=O)c2ccc3c(c2)OCO3)CC1)Nc1ccccc1Cl -36.2%
C=CCC[C@@H](Cc1ccc(F)cc1)C(=O)OC[C@@H](Cc1c[nH]c2ccccc12)NC(=O)[C@H](CC=C)CC(=O)N(CCO)Cc1ccccc1 -37.4%
Brc1ccc([C@H]2C=C[C@H]3CCCN4CC[C@H]2[C@@H]3[C@]42CO2)cc1 -30.7%
Cc1c(C(=O)NCc2cccc([N+](=O)[O-])c2)sc(=O)n1Cc1ccc(C(C)C)cc1 -37.6%
Cn1c(O)c(C=Nc2ccc(N3CCOCC3)cc2)c(=O)n(C)c1=S -36%
O=C(COc1ccc(Cl)cc1Cl)Nc1ccc(CN2CCOCC2)cc1 -47.8%
Clc1ccc(-n2nnnc2-c2cnc3ccccc3c2-c2ccccc2)cc1 -30.8%
Clc1ccc2nc(C3CCN(Cc4ccccc4)CC3)[nH]c2c1 -48.5%
O=C(c1cc2ccccc2oc1=O)N(Cc1ccccc1)Cc1ccc2c(c1)OCO2 -37.8%
CNS(=O)(=O)c1ccc(OC)c(-c2nnc3c4ccccc4c(C)nn23)c1 -41.2%
O=C(Nc1cc(Cl)ccn1)C1CCN(S(=O)(=O)c2cccs2)CC1 -47.2%
COc1cc(C(O)c2nc(-c3cccc(C(F)(F)F)c3)cs2)ccc1F (stereo unspecified) -31.3%
CCN1CCN(C(c2cccnc2)c2c(NC(=O)c3ccco3)sc(C)c2C)CC1 (stereo unspecified) -32.8%
COC(=O)C1=C(C)N(Cc2ccccc2)C(=NCc2cc(OC)c(OC)c(OC)c2)N[C@H]1c1ccc(Br)cc1 -40.5%
c1ccc(C[C@H]2CN=C(Nc3ccccc3)N2CC2CCCCC2)cc1 -35.1%
Cc1cccc(-n2c(C)nc3cc(C(=O)NCc4ccc5c(c4)OCO5)ccc32)c1 -47.1%
C[C@]12CCC(=O)C=C1CC[C@@H]1[C@@H]2[C@@H](O)C[C@@]2(C)[C@H]1CC[C@]2(O)C(=O)COC(=O)CCC(=O)O -35%
CC1=Nc2ccccc2N=C(NC(=O)c2ccccc2)C1c1ccccc1 (stereo unspecified) -47.9%
Cc1ccc(Cl)cc1N1CCN(C(=O)CSc2nnc3n2C(C)(C)Cc2ccccc2-3)CC1 -34.8%
Cc1ccc(Cn2nnc3c(=O)[nH]c(C4CCN(S(=O)(=O)/C=C/c5ccccc5)CC4)nc32)cc1 -49.7%
Cc1nc([N+](=O)[O-])c(N2CCN(Cc3ccccc3)CC2)n1Cc1ccccc1 -35.7%
Cc1ccc(C(=O)CCc2ccc(N)cc2)cc1 -31.7%
Nc1nc(SCc2ccccn2)c2ncn(C3CCCC3)c2n1 -38.2%
CCO[C@H]1OC(C(=O)N2CCN(Cc3ccc4c(c3)OCO4)CC2)=C[C@@H](C(C)(C)C)[C@@H]1CCCO -42.3%
O=C(OC1CCOC1=O)C1CCN(S(=O)(=O)c2c(Cl)cccc2Cl)CC1 (stereo unspecified) -34.5%
CCN(CC)CCn1c2c(c(SCC(=O)Nc3ccc(C)c(F)c3)nc1=O)CCCC2 -47%
C[C@H](NC(=O)c1ccc(C(C)(C)C)cc1)C(=O)N1CCN(C/C=C/c2ccccc2)CC1 -48.5%
O=C(N/N=C/c1c[nH]c2ccccc12)c1ccc(Br)cc1 -42.2%
Fc1cccc(Cc2noc(CN3CCN(c4cnccn4)CC3)n2)c1 -31.8%

Activity change, active:
Cn1c2c(c3ccccc31)CCN(CCCCN1CCN(c3ccccc3)CC1)C2=O -61.5%
COc1ccc(C(=O)c2cnc3cc4c(cc3c2C)OCO4)cc1 -56.4%
CCN(CC)CCC(=O)N1c2ccccc2CCc2ccc(NC(=O)OC)cc21 -62.5%
CCCCCCCCN1C(=O)[C@H](CC(=O)NCCC(C)C)C[C@@]2(C(=O)OC)CCCCC=C12 -60%
C=CC[C@@H](CC(=O)N(CCO)Cc1ccccc1)C(=O)N[C@@H](COC(=O)[C@@H](CC=C)Cc1ccc(F)cc1)Cc1ccccc1 -68.2%
Clc1cccc(-c2ccc(/C=N/n3cnnc3)o2)c1 -53.7%
C=CS(=O)c1sc(Cl)c(N2CCOCC2)c1[N+](=O)[O-] (stereo unspecified) -104%
COc1ccc(C(=O)c2sc(NC(C)C)nc2N)cc1OC -109%
CC1=CC(C)(C)N=C(Nc2nc(C)c3cc(C)cc(C)c3n2)N1 -95.1%
NC(Cc1ccc(C(F)(F)F)cc1)c1csc(NC(=O)Nc2ccccc2Oc2ccccc2)n1 (stereo unspecified) -59.8%
COc1ccc(Nc2ccc(C(N)=O)cc2[N+](=O)[O-])cc1 -60.6%
CCN(CC)S(=O)(=O)c1ccc(O)c(C(=O)OCC(=O)Nc2ccc(OC(F)(F)F)cc2)c1 -51.6%
Cc1ccc(S(=O)(=O)c2cn(C)c3cc(N4CCN(C)CC4)c(F)cc3c2=O)cc1 -96.9%
CN(C)CC/C=C1\c2ccccc2Sc2cc(F)c(Cl)cc21 -93%
COc1ccc(NC(=O)CN(C)C(=O)c2cccc(S(=O)(=O)N3CC4(C)CC3CC(C)(C)C4)c2)cc1 (stereo unspecified) -71.8%
Cc1ccc(-c2c[n+](Cc3ccc(Cl)cc3)c3n2CCC3)cc1 -84.7%
C/C(=N\Nc1nc(N2CCCCC2)nc(N2CCOCC2)n1)c1ccccc1O -86.3%
CC(C)N1C/C(=C/c2ccsc2)C(=O)/C(=C/c2ccsc2)C1 -95.6%
O=C(c1ccco1)N1CCN(CCCCN2C(=O)c3ccccc3C2=O)CC1 -68.7%
COc1ccc(-n2sc3ccc(F)cc3c2=O)cc1 -106%

Activity change, inactive:
Cc1ccc(-c2nc(N)sc2-c2ccc(C)cc2)cc1 -24.7%
CC1(C)Cc2c(sc3ncnc(NN)c23)CO1 70.4%
Cn1c(C(=O)O)c(CC(=O)N2CCC(Cc3ccccc3)CC2)c2ccccc21 8.82%
Cc1ccc(CNC(=O)c2ccc(N3CCC4(CC3)CC(c3cccc(Br)c3)=NO4)c(NC(=O)c3ccco3)c2)cc1 -20.6%
CC(C)C(=O)Nc1cccc(C(=O)Nc2cc([N+](=O)[O-])ccc2Cl)c1 -2.77%
CCCCCc1c(C)nc(N2CCN(Cc3ccc4c(c3)OCO4)CC2)[nH]c1=O -0.641%
CCOC(=O)CC(=O)CSc1nc2c(cc1C#N)CCC2 0.59%
NCCSC1CC(=O)N(c2ccc(F)cc2)C1=O (stereo unspecified) -21.9%
COc1ccc(/C=C2\N=C(SC)NC2=O)cc1 -0.759%
O=C(NCc1cccc(Br)c1)c1cc(-c2ccccc2)nn1CC1CC(c2cccc([N+](=O)[O-])c2)=NO1 (stereo unspecified) 0.132%
[2H]c1c([2H])c([2H])c(C(=O)c2sc(N3CCCCCC3)nc2-c2ccccc2)c([2H])c1[2H] -14%
Cc1cccc(N2CCN(S(=O)(=O)c3ccc4c(c3)CCCN4C(=O)C3CCC3)CC2)c1C 14.9%
CCOC(=O)c1nnn(-c2nonc2N)c1-c1ccc(Br)cc1 6.83%
O=C(NCc1ccc2c(c1)OCO2)c1ccc(S(=O)(=O)N2CCCCC2)cc1 -13.2%
Cc1ccc(F)c(S(=O)(=O)NC(=O)C2(C)CCN2C(=O)CCC2CCCC2)c1 (stereo unspecified) 0%

Reference: PubChem BioAssay AID743279 (National Center for Advancing Translational Sciences (NCATS), 2014)
